This note sets out measurements from article PMC6919601, “Identification of Plasmodium dipeptidyl aminopeptidase allosteric inhibitors by high throughput screening” (PLoS ONE, 2019).

Screen size: about 110,000 compounds; about 230 (0.21%) showed an effect of 50% or more. The list shows a part of the results.
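Note: 30 min substrate incubation versus DMSO and 10 µM JCP410 controls.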

The target of the assay is DPAP1 (Plasmodium falciparum, UniProt Q8IIJ9). The assay can be described thus: primary screen, percent inhibition; read by cleavage of a fluorogenic dipeptide substrate; higher = more effect of the substance. The arrangement: species or system P. falciparum D10 trophozoite lysates; single well.
Sequence of DPAP1 (Q8IIJ9 whole entry, looked up): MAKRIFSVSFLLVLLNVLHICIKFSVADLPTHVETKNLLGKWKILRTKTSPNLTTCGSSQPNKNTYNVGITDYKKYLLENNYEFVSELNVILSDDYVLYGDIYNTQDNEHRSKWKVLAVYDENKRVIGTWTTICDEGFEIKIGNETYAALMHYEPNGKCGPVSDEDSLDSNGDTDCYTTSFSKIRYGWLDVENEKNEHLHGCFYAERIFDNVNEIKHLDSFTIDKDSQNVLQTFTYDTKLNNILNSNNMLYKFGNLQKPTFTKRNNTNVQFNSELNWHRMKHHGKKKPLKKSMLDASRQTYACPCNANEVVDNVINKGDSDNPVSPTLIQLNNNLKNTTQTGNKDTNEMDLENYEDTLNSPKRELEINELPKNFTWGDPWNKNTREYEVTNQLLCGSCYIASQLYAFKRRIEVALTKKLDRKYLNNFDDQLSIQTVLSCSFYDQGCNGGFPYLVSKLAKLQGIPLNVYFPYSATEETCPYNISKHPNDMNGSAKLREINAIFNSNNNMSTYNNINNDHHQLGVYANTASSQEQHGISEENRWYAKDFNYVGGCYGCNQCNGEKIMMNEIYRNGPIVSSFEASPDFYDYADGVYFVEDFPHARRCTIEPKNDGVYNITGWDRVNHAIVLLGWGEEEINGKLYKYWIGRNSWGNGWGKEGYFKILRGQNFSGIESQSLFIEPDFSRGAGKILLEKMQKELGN
As for `CCOC(=O)N1CCN(c2c(NCCC3=CCCCC3)c(=O)c2=O)CC1`, the “% Inhibition @ 10 uM” value is listed as -2.17%. For the compound `Cc1nc2nn(-c3ccccc3)c(O)c2c(O)c1CCC(C)C`, the “% Inhibition @ 10 uM” value stood at 1.91%. Under `COc1cccc(C(=O)O/N=C(\N)Cc2cccc3ccccc23)c1` stands -5.08%; under `COc1ccc(OC)c(CNC(=O)CCn2nc(C)c3c(C)n(-c4ccccc4)nc3c2=O)c1`, -0.486%; under `Cc1cc(N2CCN(Cc3ccccc3)CC2)n2nc(C)c(-c3ccccc3)c2n1`, -5.58%. In the case of `CN(CC(=O)NC1CCN(Cc2ccccc2)CC1)c1nnc(N2CCCC2=O)s1`, the “% Inhibition @ 10 uM” value is 0.544%.

Take `CCOc1ccc(CCNC(=O)C2CC(C)=CCC2C(=O)O)cc1OCC` (stereo not drawn): the “% Inhibition @ 10 uM” value worked out at 2.7%. Under `COc1ccc(NC(=O)C2=C(C)NC(=O)NC2c2ccc(F)cc2)cc1` (stereo not drawn) stands 6.17%. Under `CCOC(=O)c1ccc(-c2ccc(/C=C(/C#N)C(=O)NCCO)o2)cc1` stands 20.4%; under `CC(=O)C1=C(C)N=C2C(=C(O)c3ccccc32)C1c1cccnc1` (stereo not drawn), 2.68%.

As to `Cc1ccc(C(=O)c2sc3nc4c(cc3c2N)C(=O)CC(C)(C)C4)cc1`, the “% Inhibition @ 10 uM” value came to 2.38%. Turning to `O=C(NCc1ccco1)c1cccc(F)c1`, the “% Inhibition @ 10 uM” value came out at 2.6%. Under `CN(C)c1ccc(C(=O)c2ccccc2C(=O)O)cc1` stands 0.76%; under `CC(C)(C)Oc1ncc(-c2nccc(Br)n2)c(OC(C)(C)C)n1`, 2.27%; under `Nc1nc2c3ccccc3nc(-c3ccccc3)n2n1`, -2.28%. `CCCN1CCN(C(=O)CCCn2nc(C)c3sc4ccccc4c3c2=O)CC1`: the “% Inhibition @ 10 uM” value is listed as 1.31%.

In the case of `CCOC(=O)C1CCN(Cc2ccco2)CC1`, the “% Inhibition @ 10 uM” value is recorded as -7.52%.

`Cc1ccc(CN2c3ccsc3C(O)=C(/C=N/CCc3c[nH]c4ccccc34)S2(=O)=O)cc1`: the “% Inhibition @ 10 uM” value is on record as 3.78%. With `NC(=O)c1sc2nc3c(cc2c1N)CN(Cc1ccccc1)CC3` the figure was 2.34%; with `CCn1ncc(CNC(=O)CCCSc2nc(-c3ccco3)cc(C(F)(F)F)n2)c1C`, -5.41%; with `Cc1cccc(-c2nc3c4ccccc4nc(NCc4ccc5c(c4)OCO5)n3n2)c1`, 0.981%. For `Cc1ccc(C)c(OCCCc2c(C)n[nH]c2C)c1`, the “% Inhibition @ 10 uM” value was -2.12%. Under `COc1ccc(CN2CCN(c3ccc(Cl)cc3)CC2)cc1C` stands 1.38%; under `Cn1c(=O)c2c(nc(OCc3cccnc3)n2Cc2c(F)cccc2Cl)n(C)c1=O`, 3.35%; under `Cc1ccc(-c2onc(C)c2C)cc1S(=O)(=O)NCc1ccc2c(c1)OCO2`, 0.977%. With `Cc1cc(O)ccc1NC(=O)Cn1cnc2c(=O)n(C)c(=O)n(C)c21`, the “% Inhibition @ 10 uM” value was -5.71%. Under `CCOC(=O)CCNC(=O)C(c1ccccc1)c1ccccc1` stands -7.35%; under `C=C(C)[C@@H]1CC=C(CN2CCN(C(=O)OCC)CC2)CC1`, -2.21%. With `Cc1ccc(/C=C2/C(=O)/C(=C/c3ccc(C)o3)C3CCC2N3C)o1`, the “% Inhibition @ 10 uM” value was -21.6%. Under `CSc1nc(O)c2c(n1)N=C1CC(C)(C)CC(O)=C1C2c1cccnc1` (stereo not drawn) stands 0.457%. As to `COc1ccc(CN2CCN(C)CC2)cc1Br`, the “% Inhibition @ 10 uM” value stood at 2.96%. With `CCOc1ccc(NS(=O)(=O)c2ccc(NC(=O)NC3CCCCC3)cc2)cc1`, the “% Inhibition @ 10 uM” value is listed as -9.02%. For the compound `OCCNCc1cccc(OCc2ccccc2)c1`, the “% Inhibition @ 10 uM” value worked out at 3.93%.

As for `CC(SC(=S)N1CCCC1)C(=O)O` (stereo not drawn), the “% Inhibition @ 10 uM” value was -1.93%. Turning to `CC1=C(C#N)C(=O)N(C)C(=O)/C1=C/c1ccc(-c2ccc(Br)cc2C(=O)O)o1`, the “% Inhibition @ 10 uM” value is -4.93%. Under `COc1ccc(CCNC(=O)c2ccc(CS(=O)(=O)c3cccc(C(F)(F)F)c3)o2)cc1OC` stands -1.28%; under `COc1ccc(S(=O)(=O)N2CCCC(C(=O)O)C2)cc1Cl` (stereo not drawn), 0.401%. With `CCOc1cc(/C=C2/NC(=O)NC2=O)ccc1OC` the figure was -1.93%; with `CC1=C(c2ccc(C)cc2)S(=O)(=O)N=C1NCCCN1CCC(Cc2ccccc2)CC1`, 5.42%; with `CCNC(=O)CN(c1ccc(OC)c(OC)c1)S(=O)(=O)c1ccccc1`, -2.14%.

For `OC1=C2CN(C3CCCCC3)CN=C2CC(c2ccccc2)C1` (stereo not drawn), the “% Inhibition @ 10 uM” value is 8.12%.

For `CC1(C)CC(=O)C(/C=N/CCN2CCN(CCc3ccccc3)CC2)=C(O)C1`, the “% Inhibition @ 10 uM” value is listed as 1.37%. Turning to `Cc1ccc(NC(=O)CN2CCCCC2)cc1Cl`, the “% Inhibition @ 10 uM” value is on record as -1.65%. With `COc1ccc(NC(=O)Cn2nc(C(F)(F)F)cc2C2CC2)cc1` the figure was -1.04%; with `O=C1N/C(=C/c2ccc(Sc3ccccc3)cc2)C(=O)N1Cc1ccccc1F`, -1.81%. Under `CCOc1ccccc1N(CC(=O)Nc1ccc(Br)c(C)c1)S(C)(=O)=O` stands -11%. With `O=C(NC1CCCC1)C1CC(c2ccc(F)cc2)=NO1` (stereo not drawn) the figure was 5.92%; with `CCOc1ccc(C(=O)N2CCN(c3ncccn3)CC2)cc1`, 1.28%; with `CN1C(=O)CC(N2CCN(C(=O)CN3CCCC3)CC2)C1=O` (stereo not drawn), 5.58%. `CCCOc1ccc(C(=O)N/C(=C/c2ccc3c(c2)OCO3)C(=O)NCCCO)cc1`: the “% Inhibition @ 10 uM” value amounted to 21.8%. Under `CCC(Oc1cccc(C)c1)c1nc2ccccc2[nH]1` (stereo not drawn) stands 0.558%; under `N=C1/C(=C/c2cccn2Cc2ccc(F)cc2)C(=O)N=C2SC=CN12`, 0.275%; under `Cc1ccccc1C(=O)Nc1ccc(S(=O)(=O)N(C)Cc2ccccc2)cc1`, 8.37%.

As for `CCc1ccc(-c2nc(CSCC(=O)NCCCOC)c(C)o2)cc1`, the “% Inhibition @ 10 uM” value was -2.85%. With `O=C(Cn1c(-c2cccs2)cc2ccccc21)N1CCC2(CC1)OCCO2` the figure was -0.911%; with `Cc1cc(Cl)ccc1NC(=O)C(=O)NCc1ccccc1`, -5.9%; with `COc1ccc(OC)c(Nc2nc3cc(C)ccc3cc2C)c1`, -1.56%. As to `CCCCOc1ccc(CN(C)c2ncnc(N)n2)cc1`, the “% Inhibition @ 10 uM” value came to 1.24%. For `CCN1CCN(C/C=C/c2ccc(N(C)C)cc2)CC1`, the “% Inhibition @ 10 uM” value is reported as -0.0494%. Under `Cc1ccccc1C1CC(=O)NC(SCC(N)=O)=C1C#N` (stereo not drawn) stands 4.11%; under `Cc1nc2ccn(Cc3cccnc3)c(=O)c2cc1C(=O)NCCc1c[nH]c2ccccc12`, -0.12%. Under `CCOc1cc(C2C3=C(CCCC3=O)N(CC(=O)O)C3=C2C(=O)CCC3)cc(Cl)c1OCC` stands -3.65%; under `CC1=C(C(=O)Nc2ccccc2)C(c2ccc(C)o2)n2c(s/c(=C/c3ccoc3)c2=O)=N1` (stereo not drawn), -0.28%.
